# Reference: paper PMC11995724, “Antibiotic target discovery by integrated phenotypic and activity-based profiling of electrophilic fragments” (Cell chemical biology, 2025)
# Hit rate of the full screen: of about 3,200 compounds, about 75 (2%) showed an effect of 50% or more. Some of the results follow.
# Test system: T1, S. aureus MSSA476
# T1 construct: MSSA476
# Parameters: species or system S. aureus MSSA476 (TSB) or V. cholerae SAD30 (LB); 384-well bacterial growth screen at 25 uM, OD600 relative to DMSO control
# Conditions: relative growth, OD600, TSB; 25 µM; inhibitor
row,Compound,% of control remaining [%]
1,"CC(NC(=O)CCl)c1nc(Cc2ccccc2)no1 (centres unmarked) [6-L07, N-[1-(3-benzyl-1,2,4-oxadiazol-5-yl)ethyl]-2-chloroacetamide]",117.122
2,"C=CC(=O)N(C)CC(=O)N1CCn2cccc2C1C (centres unmarked) [2-K10, N-methyl-N-(2-{1-methyl-1H,2H,3H,4H-pyrrolo[1,2-a]pyrazin-2-yl}-2-oxoethyl)prop-2-enamide]",96.7798
3,"N#CC(=Cc1ccc(N2CCCCC2)cc1)C(=O)Nc1nccs1 [8-C04, 2-cyano-3-[4-(piperidin-1-yl)phenyl]-N-(1,3-thiazol-2-yl)prop-2-enamide]",97.2614
4,"CC(Cl)C(=O)N1Cc2cccn2[C@@H](C)C1 (stereo partly drawn) [7-N22, 2-chloro-1-[(4S)-4-methyl-1H,2H,3H,4H-pyrrolo[1,2-a]pyrazin-2-yl]propan-1-one]",74.7253
5,"C=CC(=O)Nc1c2c(cc3c1CCC3)CCC2 [1-C11, N-(1,2,3,5,6,7-hexahydro-s-indacen-4-yl)prop-2-enamide]",94.5934
6,"C=CC(=O)NCc1ccc(N2CCN(C)CC2)cc1 [3-I20, N-{[4-(4-methylpiperazin-1-yl)phenyl]methyl}prop-2-enamide]",114.236
7,"C=CC(=O)NC(c1ccc(F)cc1)c1ccn(C)n1 (centres unmarked) [3-J20, N-[(4-fluorophenyl)(1-methyl-1H-pyrazol-3-yl)methyl]prop-2-enamide]",102.394
8,"CCN(CC)c1ccc(NC(=O)CCl)cc1 [6-N10, 2-chloro-N-[4-(diethylamino)phenyl]acetamide]",98
9,"O=C(CCl)Nc1ccnn1Cc1cccs1 [5-O13, 2-chloro-N-{1-[(thiophen-2-yl)methyl]-1H-pyrazol-5-yl}acetamide]",127.505
10,"CCCN(CC1CC1)C(=O)CCl [5-H11, 2-chloro-N-(cyclopropylmethyl)-N-propylacetamide]",96.1749
11,"C=CC(=O)N1CCOC2(CCCC2)C1 [3-I11, 1-{6-oxa-9-azaspiro[4.5]decan-9-yl}prop-2-en-1-one]",86.7218
12,"Cc1cc(C=C(C#N)C(=O)Nc2ccncc2)c(C)n1C1CC1 [8-K14, 2-cyano-3-(1-cyclopropyl-2,5-dimethyl-1H-pyrrol-3-yl)-N-(pyridin-4-yl)prop-2-enamide]",95.6017
13,"CC(Cl)C(=O)Nc1ccc2c(c1)C(=O)c1ccccc1C2=O (centres unmarked) [4-G06, 2-chloro-N-(9,10-dioxo-9,10-dihydroanthracen-2-yl)propanamide]",105.193
14,"CCN(CC)S(=O)(=O)c1ccc(Cl)c(NC(=O)CCl)c1 [5-J12, 2-chloro-N-[2-chloro-5-(diethylsulfamoyl)phenyl]acetamide]",107.468
15,"C=CC(=O)N1CCC(C(=O)NC2CCN(C(=O)C(C)(C)C)CC2)CC1 [3-I21, N-[1-(2,2-dimethylpropanoyl)piperidin-4-yl]-1-(prop-2-enoyl)piperidine-4-carboxamide]",104.136
16,"C=CC(=O)Nc1cc(NC(=O)c2cnn(-c3ccccc3)c2)ccc1F [2-G11, N-[4-fluoro-3-(prop-2-enamido)phenyl]-1-phenyl-1H-pyrazole-4-carboxamide]",100.609
17,"N#CC(=Cc1ccco1)C(=O)Nc1cc2c(cc1Cl)NC(=O)CO2 [9-D20, N-(6-chloro-3-oxo-3,4-dihydro-2H-1,4-benzoxazin-7-yl)-2-cyano-3-(furan-2-yl)prop-2-enamide]",81.1985
18,"C=CC(=O)N(C)Cc1ncc(C(F)(F)F)n1C [2-D19, N-methyl-N-{[1-methyl-5-(trifluoromethyl)-1H-imidazol-2-yl]methyl}prop-2-enamide]",107.224
19,"C=CC(=O)N1CCOC(Cn2cncn2)C1 (centres unmarked) [1-F20, 1-{2-[(1H-1,2,4-triazol-1-yl)methyl]morpholin-4-yl}prop-2-en-1-one]",143.824
20,"N#CCSc1ccccc1NC(=O)CCl [6-C11, 2-chloro-N-{2-[(cyanomethyl)sulfanyl]phenyl}acetamide]",89.122
21,"COc1ccc(NC(C)=O)cc1NC(=O)C(C)Cl (centres unmarked) [4-M08, 2-chloro-N-(5-acetamido-2-methoxyphenyl)propanamide]",91.4721
22,"C=CC(=O)NCCCn1cnc2ccccc21 [2-P11, N-[3-(1H-1,3-benzodiazol-1-yl)propyl]prop-2-enamide]",92.6023
23,"C=CC(=O)N1C2C=C(c3nccn3C)CC1CC2 (centres unmarked) [3-G03, 1-[3-(1-methyl-1H-imidazol-2-yl)-8-azabicyclo[3.2.1]oct-2-en-8-yl]prop-2-en-1-one]",83.239
24,"O=C(CCl)C1(F)CCCCC1 [10-K19, 2-chloro-1-(1-fluorocyclohexyl)ethan-1-one]",143.75
25,"CC(C)NC(=O)C(C#N)=Cc1cccc(Cl)c1Cl [9-C07, 2-cyano-3-(2,3-dichlorophenyl)-N-(propan-2-yl)prop-2-enamide]",109.963
26,"CC(Cl)C(=O)N1CCN(c2nccc3sccc23)CC1 (centres unmarked) [7-G10, 2-chloro-1-(4-{thieno[3,2-c]pyridin-4-yl}piperazin-1-yl)propan-1-one]",107.378
27,"Cc1cc(C(=O)CCl)c(C)n1Cc1ccccc1 [10-M14, 1-(1-benzyl-2,5-dimethyl-1H-pyrrol-3-yl)-2-chloroethan-1-one]",143.438
28,"CC(C)C1C(=O)Nc2ccc(Cl)cc2N1C(=O)CCl (centres unmarked) [5-C11, 6-chloro-4-(2-chloroacetyl)-3-(propan-2-yl)-1,2,3,4-tetrahydroquinoxalin-2-one]",101.639
29,"C=CC(=O)N(CC)CC(=O)N1CCCC1c1cn(C)nc1C (centres unmarked) [2-N12, N-{2-[2-(1,3-dimethyl-1H-pyrazol-4-yl)pyrrolidin-1-yl]-2-oxoethyl}-N-ethylprop-2-enamide]",110.009
